Measurements: paper PMC12136788
This is one part of the list.

B1: chr2:168010559:168010560:-_ENSMUSG00000051149_ENSMUST00000088001|perfect_dup|motif|central (ssRNA)
RNA: GGGAGUUCUACAGUCCGACGAUCUUCCAAAGUCUUUUUAUCUGCAUUGAAGGUACAGUAAGGGCAGUUAAGGAGAAUCCGGUUUUCAAAGUCUUCACUAUGGACAUUCCGGAAAUGACUUUUGUAGGCAGAGAAGAAUUUUGACAACAGAGGAUUGAGCAUCA
B2: chr12:79975562:79975563:+_ENSMUSG00000021116_ENSMUST00000071230|mus_mus|FALSE|FALSE (ssRNA)
RNA: GGGAGUUCUACAGUCCGACGAUCGAAUUUGUCCUCACAUUUGAUUGCUUCCUCUGGAGAAACUCUUCUUUUUGACAAAUCUAUAUAUCCUUUUUCUUUAUCCACUCUAAUGACAACAACACAUUCAUUUCUGCCAAUUCGGAUCAACAGAGGAUUGAGCAUCA
B3: 115922937_115923057_297_CDS_ENSG00000165813_ENST00000369287|human|control|control (ssRNA)
RNA: GGGAGUUCUACAGUCCGACGAUCAAACAAGUUGCAUGAGUCUUCCUUUAAUUCAGGUGUUUUCCCAACAUUUUUAUCAGAGGAAGUAGAGGCUAUGUGGUCUGUCUCUGACAUGCUGACUGGCACCAAUUCACUUUGUAAUUCCAACAGAGGAUUGAGCAUCA
B4: 34767496_34767616_1414_3pUTR_ENSMUSG00000003778_ENSMUST00000003876|mouse|control|control (ssRNA)
RNA: GGGAGUUCUACAGUCCGACGAUCCAGCAAUAUCCAUCUUCUCCGCUAGAUCCAAGUCUUCCUUCCCAUCUAUGCUUGGAGCCUUUGAUCCACCAGGAGCCUCUGCUACCCCUGAGCGGAAACACUCUUCUUUGAUGGAAUUAACAACAGAGGAUUGAGCAUCA
B5: chr13:48835921:48835922:+_ENSG00000136156_ENST00000378565|hu_hu|motif|central (ssRNA)
RNA: GGGAGUUCUACAGUCCGACGAUCGAUAUGGGUUAUACAAAUUAGUAACACAAGUUAUUUCUUAAAUUCCAAACAUUUUCGGAAAUAUUAUUACAGCAGAUGCCUAGGAUAUUAAAACAUAAAGGUGGAAAUCAUUCUCUAAAUCAACAGAGGAUUGAGCAUCA
B6: 23648108_23650120_724_CDS_ENSG00000125944_ENST00000302271|human|control|control (ssRNA)
RNA: GGGAGUUCUACAGUCCGACGAUCAAUGCACACUCCAAGGUGUUUACCAGGGCGAAUUUCAUAGCUGUCACACAGUUUCACGGCUUCCUGUGCAGCUUCCUUUCCACAGAAGGUGAUAAAUGCAUACCCUCUAUUCUGACCGGACAACAGAGGAUUGAGCAUCA
B7: chr6:41757443:41757444:+_ENSG00000214736_ENST00000398881|hu_mus|hu_hu_hu_mus_False|78_108 (ssRNA)
RNA: GGGAGUUCUACAGUCCGACGAUCGAACUGUCUGCUGGCAACAUCUCAGCCGACACUGUGGACUCAAGGGGCAGUGGGGGGGGGUUCAGGCAAGGAGAGGGAGUCAACUUCAGCUGCCACUCAGGUAGGAUCUUGUGGUCACAGCAACAGAGGAUUGAGCAUCA
B8: chr19:29217640:29217641:+_ENSMUSG00000024785_ENSMUST00000064393|mus_mus|motif|central (ssRNA)
RNA: GGGAGUUCUACAGUCCGACGAUCCUUGGUUUCAACUUUAAACAUAACCUGGAAAAAGCUCUUCAGAUGCCGCAAAAAUUCGGUCGUGUAGGGUGAGAGUGGUCCCAGCAGGACUUUGGAAACGUCCUGCUGUCCAAGGGUCAUCAACAGAGGAUUGAGCAUCA
B9: chrX:50352303:50352304:+_ENSMUSG00000025630_ENSMUST00000026723|mus_hu|FALSE|FALSE (ssRNA)
RNA: GGGAGUUCUACAGUCCGACGAUCCAGCAUAAUGAUUAGGUAUGCAAAAUAAAUCAAGGUCAUAACCUGGUUCAUCAUCACUAAUCACGACGCCAGGGCUGCGGGUCGCCAUAACGGAGCCGGCCGGCGCGCGGGCUGACUGCUCAACAGAGGAUUGAGCAUCA
B10: chr5:162900210:162900211:+_ENSG00000072571_ENST00000358715|hu_mus|motif|central (ssRNA)
RNA: GGGAGUUCUACAGUCCGACGAUCUUGGAUGUAUUCUAAGAGUUUUUCUGUUUCACAUUUUUCAUCGAUCUUUUCUUUCUCGGUUGAAACAAGCUUUCCCUCCAGCUGGACUAUUUUUCCCUUAGACUCCGUGAGGUCCUUCUGCAACAGAGGAUUGAGCAUCA
B11: chr2:39006174:39006175:+_ENSG00000152147_ENST00000409566|hu_hu|motif|central (ssRNA)
RNA: GGGAGUUCUACAGUCCGACGAUCUCAUUCUUCUCACUGGCUGUCACUCGGACCUCUUUGUAAAUGUAAUCUUGCCAUUCGGAGGGGCCUUUCUUCAUCCAUUCACUCAUGAUUGCCACCUGGCUAAAUCAGUUAAAAAACUCCCAACAGAGGAUUGAGCAUCA
B12: chr3:179342097:179342098:+_ENSG00000136521_ENST00000259037|hu_hu|FALSE|FALSE (ssRNA)
RNA: GGGAGUUCUACAGUCCGACGAUCCUGGUGCUUAACAUUAUUAGACUUCUAUAACUUCCAUUUGUCAGGUAAAUAAAACACUAACCUUUCAAAGUUGCUACAAUUUUAGGAGUUCACAAAUUCCUAUUUCUCCAGUUUUUAUUACAACAGAGGAUUGAGCAUCA
B13: chr5:10264876:10264877:+_ENSG00000150753_ENST00000503026|hu_hu|motif|central (ssRNA)
RNA: GGGAGUUCUACAGUCCGACGAUCAUAACUGUAGAUGCAUCACGAGACAUCCAUUUACUUAAUCACAGAAGUGGAUCUUGCGGCAUAGUUUUCUCAAUGUCUUCAUUCUUCAGAUUCUCCAGGCUUACGAAUGUCAUCAAUCUUCAACAGAGGAUUGAGCAUCA
B14: 130276092_130276212_139_5pUTR_ENSMUSG00000027303_ENSMUST00000028769|mouse|control|control (ssRNA)
RNA: GGGAGUUCUACAGUCCGACGAUCCCCCUCAGGGCCGCCGCCCGGUCCGCUGCUCGAAGCCCCGCGGCGGCGGCGGCGGCCUCGCCUCCAUGGCGAGGAGAAGCGGCAGAGAGAGGACUGGGCUGGAGGCUGCGAUGGCGGCGUCAACAGAGGAUUGAGCAUCA
B15: chr4:76721835:76721836:+_ENSG00000138768_ENST00000264904|hu_mus|hu_hu_hu_mus_True|8_98 (ssRNA)
RNA: GGGAGUUCUACAGUCCGACGAUCGUUUGGCUGGGGUUCUGAGAUGCCUCUGGAAUAUAACUCAUGUUUGCUAAUAAAUCCUAGUUUCUCUAUGAAAUUCUCUUUGCCAAUCCUCUUCUCUAUUAGUGUUUUAGCUUUCUCUUUCAACAGAGGAUUGAGCAUCA
B16: chr18:52894491:52894492:-_ENSG00000196628_ENST00000354452|hu_mus|motif|central (ssRNA)
RNA: GGGAGUUCUACAGUCCGACGAUCCAAAAAAAAAAAUCCAUAUUUACAGUAAAAUCUUUCUUUUAAAAAAGUUAAUCAGUACGGUUUUUUUACAGGAGAAAAAAGUCUGAAACAAAUCAACAAAAGCUUACCAUAGUCACUAAACAACAGAGGAUUGAGCAUCA
B17: chr9:123603995:123603996:-_ENSMUSG00000025245_ENSMUST00000165754|mus_mus|motif|central (ssRNA)
RNA: GGGAGUUCUACAGUCCGACGAUCACAGAAUAAAGCAAUUACAAAUUUAGGAAAAUGUAAUAAUUAUCUAAAGCAAAAACGGUUGAGCCUAGAAUAACUCUAAAAUGUUAUUUUGAGGUCCAAAACUAUGUGUUAAGAACUUAGCAACAGAGGAUUGAGCAUCA
B18: chr1:65854986:65854987:+_ENSG00000116675_ENST00000371069|hu_hu|motif|central (ssRNA)
RNA: GGGAGUUCUACAGUCCGACGAUCGAGGAUGCUGGGAUUGACAUCUUUUGUGCAGUAAUGUUCCCAUGGUGGAGUUAAGUCGGUUACUUUGUCAUGGGGCUGUAGUUCUACAUCCAGUGUCACCUGAAAUAGCUGAGGAUAUUUCAACAGAGGAUUGAGCAUCA
B19: 40564312_40564750_764_CDS_ENSMUSG00000025757_ENSMUST00000077083|mouse|control|control (ssRNA)
RNA: GGGAGUUCUACAGUCCGACGAUCAUCUAAUGAGGGAAGAUCCUGCUUAUAAAUUCCAUAUGCCAGUGCAACUGCAGUGGUUUCAUUCAUCAGCCUCAGACAGUUUAGGCCUGCAACCUGGGCUGCGGCCAUCACGGAUCUUCUCAACAGAGGAUUGAGCAUCA
B20: 105762366_105762853_224_5pUTR_ENSMUSG00000000563_ENSMUST00000118209|mouse|control|control (ssRNA)
RNA: GGGAGUUCUACAGUCCGACGAUCAUUCUCGCGAGAAGUAGAGCGAAUUCCCUCGGAGAGGGGCGGUUGCGCAGAGGUACACCACGUGUGCGGUCCCUCCGGCGCCGAGUCAGGGUCUCUCGUCGAGUCUGGGUCUUAUAACUUCAACAGAGGAUUGAGCAUCA
B21: chrX:147030410:147030411:+_ENSG00000102081_ENST00000218200|hu_hu|motif|central (ssRNA)
RNA: GGGAGUUCUACAGUCCGACGAUCUUUCAUGCCCUGUGCCAUCUUGCCUACUAUUUGUCUUUGGCCUAACAAAGUUUUCGGAUAUGGAAUAAGAAUUACGGAAAUGGUAUAGGAAAUAUAACUUCAGAAUUAUGCAGUUUAGGGCAACAGAGGAUUGAGCAUCA
B22: chr14:66974463:66974464:+_ENSMUSG00000022044_ENSMUST00000074523|mus_hu|mus_mus_mus_hu_False|8_38 (ssRNA)
RNA: GGGAGUUCUACAGUCCGACGAUCUUGUAGGACGACUUAUUCAGGGGAUCGGCCAGGAAGCAGGAGCAGAACAAGGACACCAGCGGGAGCUCCUUCAUCUUCUCCUUGUAGGCAGCAAGGGUCAUGUUGGCUGGAAUUGGUGGCCAACAGAGGAUUGAGCAUCA

biological target: T1, UNK ZnF1-3 (human, UniProt Q9C0B0 31-174); experiment: nsRBNS (natural sequence RNA bind-n-seq); RBNS binding buffer (assumed for nsRBNS): 25 mM Tris pH 7.5, 150 mM KCl, 3 mM MgCl2, 0.01% Triton X-100, 500 ug/ml BSA, 20 U/ml SUPERase-In, 4 C; UNK is unkempt and MSI1 is Musashi-1; names of the RNAs are library labels; protein concentration not given here; high values mean tight binding
T1 sequence: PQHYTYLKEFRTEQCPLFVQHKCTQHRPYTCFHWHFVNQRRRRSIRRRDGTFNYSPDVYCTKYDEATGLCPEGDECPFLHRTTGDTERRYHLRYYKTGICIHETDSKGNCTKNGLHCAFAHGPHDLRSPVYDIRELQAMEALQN

| Binder | binding signal [enrichment R] |
| --- | --- |
| B1 | 1.29 |
| B2 | 0.629 |
| B3 | 0.805 |
| B4 | 0.707 |
| B5 | 1.11 |
| B6 | 0.814 |
| B7 | 1.98 |
| B8 | 1.08 |
| B9 | 0.952 |
| B10 | 0.266 |
| B11 | 0.801 |
| B12 | 0.572 |
| B13 | 0.802 |
| B14 | 0.429 |
| B15 | 0.567 |
| B16 | 1.13 |
| B17 | 0.627 |
| B18 | 1.41 |
| B19 | 0.732 |
| B20 | 0.752 |
| B21 | 1.54 |
| B22 | 2.11 |
